# Laboratory results reported in PubChem BioAssay AID1745853 (National Center for Advancing Translational Sciences (NCATS), 2022).
# The other results are listed elsewhere or left out. These are further read-outs of the screen, such as a control signal, another cell line or another target. No call is given for them.
# How the values were obtained:
# Experiment in all cases: Primary Screen for Target Class Profiling of Small Molecule Inhibitors of Methyltransferases
# [1] = target: Glycine N-methyltransferase (Homo sapiens) (UniProt Q14749); details: purified enzyme, MTase-Glo SAH luminescence; measured here: GNMT inhibition; at 40 µM; stronger effect = lower value
# In short: (§1)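 Each enzyme was assayed with SAM and its substrate. SAH formation detected by MTase-Glo luminescence; single-point 40 uM screen[…].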
# [2] = target: Guanidinoacetate N-methyltransferase (Homo sapiens) (UniProt Q14353); details: purified enzyme, MTase-Glo SAH luminescence; measured here: GAMT inhibition; at 40 µM; stronger effect = lower value
# In short: as §1
# [3] = target: Histamine N-methyltransferase (Homo sapiens) (UniProt P50135); details: purified enzyme, MTase-Glo SAH luminescence; measured here: HNMT inhibition; at 40 µM; stronger effect = lower value
# In short: as §1
# [4] = target: Nicotinamide N-methyltransferase (Homo sapiens) (UniProt P40261); details: purified enzyme, MTase-Glo SAH luminescence; measured here: NNMT inhibition; at 40 µM; stronger effect = lower value
# In short: as §1
# [5] = target: Phenylethanolamine N-methyltransferase (Homo sapiens) (UniProt P11086); details: purified enzyme, MTase-Glo SAH luminescence; measured here: PNMT inhibition; at 40 µM; stronger effect = lower value
# In short: as §1
# On the % scale 0 is the no-effect control and ±100 the full control effect.
structure (smiles),measurement,setting,value
O=C1Nc2ccccc2CC12CCN(Cc1cccnc1)C2 (stereo not given),"activity change, negative = inhibition",[1],-6.7%
same,"activity change, negative = inhibition",[2],-1.81%
same,"activity change, negative = inhibition",[3],-0.683%
same,"activity change, negative = inhibition",[4],-5.54%
same,"activity change, negative = inhibition",[5],-26.7%
CSc1ccc(C2c3cccn3-c3ccccc3CN2C(=O)Nc2cccc(SC)c2)cc1 (stereo not given),"activity change, negative = inhibition",[1],-1.71%
same,"activity change, negative = inhibition",[2],-3.27%
same,"activity change, negative = inhibition",[3],-1.15%
same,"activity change, negative = inhibition",[4],-7.54%
same,"activity change, negative = inhibition",[5],-2.52%
COc1cccc(CNC(=O)N2Cc3ccccc3-n3cccc3C2c2cccc(Cl)c2)c1 (stereo not given),"activity change, negative = inhibition",[1],5.23%
same,"activity change, negative = inhibition",[2],0%
same,"activity change, negative = inhibition",[3],-0.291%
same,"activity change, negative = inhibition",[4],-4.2%
same,"activity change, negative = inhibition",[5],2.8%
COc1ccccc1-n1cc(C2=CCN(CCOCCO)CC2)cn1,"activity change, negative = inhibition",[1],-12%
same,"activity change, negative = inhibition",[2],-7.87%
same,"activity change, negative = inhibition",[3],-36.5%
same,"activity change, negative = inhibition",[4],-10.8%
same,"activity change, negative = inhibition",[5],8.32%
Cc1ccc(NC(=O)N2Cc3ccccc3-n3cccc3C2c2cccc(Cl)c2)cc1C (stereo not given),"activity change, negative = inhibition",[1],10.8%
same,"activity change, negative = inhibition",[2],4.22%
same,"activity change, negative = inhibition",[3],2.35%
same,"activity change, negative = inhibition",[4],-1.07%
same,"activity change, negative = inhibition",[5],2.19%
CCC1c2cccn2-c2ccccc2CN1C(=O)NC1CCCC1 (stereo not given),"activity change, negative = inhibition",[1],-5.86%
same,"activity change, negative = inhibition",[2],1.77%
same,"activity change, negative = inhibition",[3],-9.34%
same,"activity change, negative = inhibition",[4],-20.8%
same,"activity change, negative = inhibition",[5],-6.38%
Cc1ccc(C2c3cccn3-c3ccccc3CN2C(=O)Nc2cccc(Cl)c2C)cc1 (stereo not given),"activity change, negative = inhibition",[1],2.15%
same,"activity change, negative = inhibition",[2],4.22%
same,"activity change, negative = inhibition",[3],-4.01%
same,"activity change, negative = inhibition",[4],2.91%
same,"activity change, negative = inhibition",[5],1.73%
Cc1cccc(C2c3cccn3-c3ccccc3CN2C(=O)Nc2cccc(Cl)c2)c1 (stereo not given),"activity change, negative = inhibition",[1],9.9%
same,"activity change, negative = inhibition",[2],2.62%
same,"activity change, negative = inhibition",[3],1.73%
same,"activity change, negative = inhibition",[4],-1.57%
same,"activity change, negative = inhibition",[5],4.55%
Cc1ccc(NC(=O)N2Cc3ccccc3-n3cccc3C2c2cccs2)c(Cl)c1 (stereo not given),"activity change, negative = inhibition",[1],6.69%
same,"activity change, negative = inhibition",[2],4.02%
same,"activity change, negative = inhibition",[3],-1.39%
same,"activity change, negative = inhibition",[4],-6.42%
same,"activity change, negative = inhibition",[5],1.29%
C=C1[C@@H](C)[C@H]2[C@H](Cc3ccccc3)NC(=O)[C@]23OC(=O)/C=C/C(=O)CCC[C@@H](C)C/C=C/[C@H]3[C@@H]1O,"activity change, negative = inhibition",[1],5.38%
same,"activity change, negative = inhibition",[2],-2.35%
same,"activity change, negative = inhibition",[3],8.54%
same,"activity change, negative = inhibition",[4],-14%
same,"activity change, negative = inhibition",[5],-0.799%
C=C1[C@@]23C(=O)O[C@H](C)[C@]24O[C@@]2(C(=C)[C@]5(C=CC(=O)OC5(C)C)CC[C@]32C)[C@H](O)[C@@]1(C)OC4=O,"activity change, negative = inhibition",[1],0%
same,"activity change, negative = inhibition",[2],-1.78%
same,"activity change, negative = inhibition",[3],9.41%
same,"activity change, negative = inhibition",[4],-16.9%
same,"activity change, negative = inhibition",[5],-10.5%
COC(=O)c1cccc(NC(=O)N2Cc3ccccc3-n3cccc3C2c2ccccc2Cl)c1 (stereo not given),"activity change, negative = inhibition",[1],2.33%
same,"activity change, negative = inhibition",[2],-6.07%
same,"activity change, negative = inhibition",[3],4.13%
same,"activity change, negative = inhibition",[4],-7.93%
same,"activity change, negative = inhibition",[5],-1.34%
O=C(Nc1ccc(Cl)cc1)N1Cc2ccccc2-n2cccc2C1c1ccccc1 (stereo not given),"activity change, negative = inhibition",[1],9.65%
same,"activity change, negative = inhibition",[2],0%
same,"activity change, negative = inhibition",[3],2.45%
same,"activity change, negative = inhibition",[4],-1.82%
same,"activity change, negative = inhibition",[5],3.14%
Cc1ccc(Cl)cc1NC(=O)N1Cc2ccccc2-n2cccc2C1C(C)C (stereo not given),"activity change, negative = inhibition",[1],0.428%
same,"activity change, negative = inhibition",[2],0.812%
same,"activity change, negative = inhibition",[3],2.31%
same,"activity change, negative = inhibition",[4],5.42%
same,"activity change, negative = inhibition",[5],6.45%
CCCNC(=O)N1Cc2ccccc2-n2cccc2C1c1ccc(SC)cc1 (stereo not given),"activity change, negative = inhibition",[1],-0.532%
same,"activity change, negative = inhibition",[2],3.15%
same,"activity change, negative = inhibition",[3],-2.76%
same,"activity change, negative = inhibition",[4],-1.48%
same,"activity change, negative = inhibition",[5],1.8%
O=c1[nH]c2ccc(Cl)cc2c(N[C@@H]2CN3CCC2CC3)c1-c1nc2ccccc2[nH]1,"activity change, negative = inhibition",[1],-10.8%
same,"activity change, negative = inhibition",[2],-0.731%
same,"activity change, negative = inhibition",[3],-0.242%
same,"activity change, negative = inhibition",[4],-40.7%
same,"activity change, negative = inhibition",[5],-7.83%
Cc1cccc(C2c3cccn3-c3ccccc3CN2C(=O)Nc2ccc(C)cc2Cl)c1 (stereo not given),"activity change, negative = inhibition",[1],7.63%
same,"activity change, negative = inhibition",[2],0%
same,"activity change, negative = inhibition",[3],3.35%
same,"activity change, negative = inhibition",[4],-3.93%
same,"activity change, negative = inhibition",[5],1.84%
O=C(c1ccncc1)N1C2CCC1CN(Cc1cccnc1)C2,"activity change, negative = inhibition",[1],1.21%
same,"activity change, negative = inhibition",[2],-1.95%
same,"activity change, negative = inhibition",[3],1.19%
same,"activity change, negative = inhibition",[4],-5.54%
same,"activity change, negative = inhibition",[5],-4.57%
CSc1ccc(C2c3cccn3-c3ccccc3CN2C(=O)Nc2cc(C)ccc2C)cc1 (stereo not given),"activity change, negative = inhibition",[1],6.3%
same,"activity change, negative = inhibition",[2],1.94%
same,"activity change, negative = inhibition",[3],1.25%
same,"activity change, negative = inhibition",[4],3.88%
same,"activity change, negative = inhibition",[5],6.64%
COC(=O)C12C(=O)C(C)(O)C(=O)C1(C)C(C)=CC1C34CCC(OC3=O)C(C)(C)C4CCC12C (stereo not given),"activity change, negative = inhibition",[1],0%
same,"activity change, negative = inhibition",[2],-7.03%
same,"activity change, negative = inhibition",[3],4.33%
same,"activity change, negative = inhibition",[4],-19.8%
same,"activity change, negative = inhibition",[5],-15.8%
COc1cccc(CNC(=O)N2Cc3ccccc3-n3cccc3C2c2ccc(N(C)C)cc2)c1 (stereo not given),"activity change, negative = inhibition",[1],7.89%
same,"activity change, negative = inhibition",[2],1.18%
same,"activity change, negative = inhibition",[3],3.58%
same,"activity change, negative = inhibition",[4],2.15%
same,"activity change, negative = inhibition",[5],6.14%
C=CC(C)(O)CC/C=C(\C)C(=O)O[C@H]1[C@H](O)[C@@H](CO)O[C@@H](OC(=O)[C@]23CCC(C)(C)CC2C2=CCC4[C@@]5(C)CC[C@H](O[C@@H]6O[C@H](CO[C@@H]7OC[C@H](O)[C@H](O)[C@H]7O[C@@H]7OC[C@@H](O)[C@H](O)[C@H]7O)[C@@H](O)[C@H](O)[C@H]6O)C(C)(C)C5CC[C@@]4(C)[C@]2(C)CC3)[C@@H]1OC1OC(C)C(O[C@@H]2OC[C@@H](O)[C@H](O[C@@H]3OC[C@@H](O)[C@H](O)[C@H]3O)[C@H]2O)C(O)C1O (stereo not given in full),"activity change, negative = inhibition",[1],7.41%
same,"activity change, negative = inhibition",[2],25.2%
same,"activity change, negative = inhibition",[3],8.53%
same,"activity change, negative = inhibition",[4],5.97%
same,"activity change, negative = inhibition",[5],11.9%
Cc1ccc(Cn2nc(C(=O)N[C@@H]3C(C)(C)[C@@H]4CC[C@@]3(C)C4)cc2-c2ccc(Cl)c(C)c2)cc1,"activity change, negative = inhibition",[1],2.04%
same,"activity change, negative = inhibition",[2],-24.7%
same,"activity change, negative = inhibition",[3],9.4%
same,"activity change, negative = inhibition",[4],-29.9%
same,"activity change, negative = inhibition",[5],-4.27%
CCOc1ccc(C2c3cccn3-c3ccccc3CN2C(=O)NCc2ccc(F)cc2)cc1 (stereo not given),"activity change, negative = inhibition",[1],-2.44%
same,"activity change, negative = inhibition",[2],4.19%
same,"activity change, negative = inhibition",[3],3.69%
same,"activity change, negative = inhibition",[4],-2.16%
same,"activity change, negative = inhibition",[5],3.1%
COc1ccccc1NC(=O)N1Cc2ccccc2-n2cccc2C1c1cc(F)cc(F)c1 (stereo not given),"activity change, negative = inhibition",[1],4.95%
same,"activity change, negative = inhibition",[2],0%
same,"activity change, negative = inhibition",[3],4.07%
same,"activity change, negative = inhibition",[4],0.717%
same,"activity change, negative = inhibition",[5],1.41%
O=C(NCc1ccc(F)cc1)N1Cc2ccccc2-n2cccc2C1c1ccc(F)cc1 (stereo not given),"activity change, negative = inhibition",[1],-0.794%
same,"activity change, negative = inhibition",[2],0%
same,"activity change, negative = inhibition",[3],-1.52%
same,"activity change, negative = inhibition",[4],-4.49%
same,"activity change, negative = inhibition",[5],0.985%
CN(C)CCc1c[nH]c2ccc(CN3CCN(C)S3(=O)=O)cc12,"activity change, negative = inhibition",[1],2.61%
same,"activity change, negative = inhibition",[2],-3.26%
same,"activity change, negative = inhibition",[3],-32.9%
same,"activity change, negative = inhibition",[4],-11.2%
same,"activity change, negative = inhibition",[5],-6.19%
CCc1ccc(C2c3cccn3-c3ccccc3CN2C(=O)NCc2ccco2)cc1 (stereo not given),"activity change, negative = inhibition",[1],13%
same,"activity change, negative = inhibition",[2],0%
same,"activity change, negative = inhibition",[3],6.8%
same,"activity change, negative = inhibition",[4],3.55%
same,"activity change, negative = inhibition",[5],7.94%
